Laboratory results reported in the supplement of paper PMC3334620.
Whole data set: some 33,000 sequences, median “E-score (-0.5 to 0.5)” near -0.021, cut for the highest 2% near 0.32. Some of the results follow.

biological target: T1, Zap1 (UniProt P47043); assay: PBM E-score (8-mer binding enrichment) (E-score (-0.5 to 0.5)); higher = stronger / more preferred TF binding; most listed sequences are background and not binding sites; details: protein concentration: 200 nM; construct: GST-full length
T1 sequence: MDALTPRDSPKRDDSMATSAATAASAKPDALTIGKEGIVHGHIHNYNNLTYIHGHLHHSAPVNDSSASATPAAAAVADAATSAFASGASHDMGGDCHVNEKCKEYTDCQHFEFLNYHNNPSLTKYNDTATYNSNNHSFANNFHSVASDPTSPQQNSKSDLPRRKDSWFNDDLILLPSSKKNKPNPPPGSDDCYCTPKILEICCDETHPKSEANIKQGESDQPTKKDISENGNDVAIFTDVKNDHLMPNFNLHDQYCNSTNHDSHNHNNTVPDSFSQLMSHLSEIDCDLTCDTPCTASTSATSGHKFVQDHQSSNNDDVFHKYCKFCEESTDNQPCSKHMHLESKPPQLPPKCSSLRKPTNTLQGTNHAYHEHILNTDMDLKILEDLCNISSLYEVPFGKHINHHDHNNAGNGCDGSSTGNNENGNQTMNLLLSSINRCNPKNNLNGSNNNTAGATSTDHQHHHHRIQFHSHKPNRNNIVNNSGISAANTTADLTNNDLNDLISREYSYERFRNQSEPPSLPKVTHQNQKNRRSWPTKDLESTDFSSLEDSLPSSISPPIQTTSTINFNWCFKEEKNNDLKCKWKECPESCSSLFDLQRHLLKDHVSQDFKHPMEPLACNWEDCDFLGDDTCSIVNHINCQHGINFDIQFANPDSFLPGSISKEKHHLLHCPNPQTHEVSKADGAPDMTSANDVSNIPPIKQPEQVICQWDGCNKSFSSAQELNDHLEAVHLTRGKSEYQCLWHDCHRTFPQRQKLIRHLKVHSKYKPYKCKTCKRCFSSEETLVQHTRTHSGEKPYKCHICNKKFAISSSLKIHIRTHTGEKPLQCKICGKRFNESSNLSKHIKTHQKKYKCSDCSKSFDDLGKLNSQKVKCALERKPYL
How it was run: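 Yeast transcription factors, full-length or as DNA-binding domains, were expressed with a GST tag using PURExpress in vitro transcription/translation. At about 100-200 nM they were applied to universal all-10-mer Agilent arrays, double-stranded by primer extension on fresh or once-stripped slides. Fluorescent anti-GST detected bound protein, and masliner normalised the scans. E-scores for ungapped eight-base words, pooled with reverse complements, came from the Universal PBM Analysis Suite.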

Sequence	PBM E-score
CACTACTC	0.111
AGAACAAT	0.233
CGTATAGC	-0.0813
GTCGTAAA	0.0755
CCAACACC	-0.0192
AAAACTCC	-0.245
AAAGTGTG	0.071
AGTCTACG	-0.144
CAGGGTAG	0.306
GGTCCACC	0.0426
AGCAACAC	-0.0488
AGCTATCA	-0.0689
GTCCAGAC	-0.136
GCTACTGA	-0.122
CCTGCAAA	-0.129
CAGTGACC	0.276
GAAAGAAA	0.111
ACTCCCGA	-0.0985
AACGGTAA	0.134
GTAGGGTA	0.429
TACAAGAA	0.0792
GTAAGCAC	-0.088
CTAGTCAC	-0.042
CCGGGCTA	-0.185
GTTGACAA	0.152

Sequence	PBM E-score
CACAGGTG	-0.0962
CTGCCCAA	-0.118
ATACGTGC	-0.122
AACTACCC	0.391
AAGGTAGA	0.106
AGATTTAA	-0.0153
ACACGCGC	-0.12
CTAAGGCA	-0.0776
CGTCCCAC	-0.131
AATCGTAG	-0.0487
GAGTTGCA	-0.0948
CTCGAATA	-0.0835
AAAGAATT	-0.0372
ATGCACCG	-0.13
CCGCACAA	-0.0646
CAAAGAGG	0.0514
GATTCATA	-0.205
AATCGACT	-0.176
CTAGGAGC	-0.256
CAATAGCC	-0.147
ACGTGACT	-0.347
CCTCGCTC	0.0142
TGGTTCAA	0.104
CCTAGCAA	0.0808
GACACGAC	0.0622

Sequence	PBM E-score
AAGATGAT	-0.0471
AATGACTA	-0.136
CGACCGCA	0.0929
ATGTGGGG	-0.15
AGCTGTAG	-0.0501
ACATTGGT	0.0872
GCCCCCAA	-0.197
GGTAGAAC	-0.131
ACTATAAG	0.0772
GAGGTGGC	-0.0769
TGGATTAA	0.0758
CTCCCGTA	-0.194
AGCCGAAA	0.0407
GGCTTGCA	-0.129
CGCTGACA	-0.0531
AATTTACC	0.128
GTGCTAAC	0.0634
CCACAATC	0.0641
ATCATATA	0.125
CTCCTATA	-0.187
CGTGCCTC	-0.129
GCACTTAC	-0.193
TAAGGACA	0.106
GAACTGAA	0.0377
AGTCCGGC	-0.184

Sequence	PBM E-score
ACATAGAG	-0.0301
ACGTCTGA	-0.132
CAGGAAGA	-0.192
CTGACACC	0.0297
ACAATGCT	-0.223
ACGGACCA	0.124
CTATAAGA	-0.158
ACCACCAG	0.175
GCCCTTAC	-0.15
ACTCGAGA	-0.0581
CAGGGGCC	0.148
GCGGGCAC	-0.0378
CTCCTCAG	-0.119
GTCATCGA	-0.0929
TCCGTCGA	-0.173
CTTCCAGC	-0.294
TCGAAACA	0.0165
GGCGCGCA	0.00676
TCCTGCGA	-0.0548
ATGCTTTA	-0.158
CGGAGGTA	0.144
AGAGGTCG	0.304
AGCTTTTC	-0.151
CTCGAGTA	0.111
CTTGTAAC	0.215

Sequence	PBM E-score
AGGTTACG	0.459
CCGCAGTA	0.0709
GTAAGCAA	-0.00929
ACATTAGT	-0.0193
AATACTTA	0.0505
TACGAGGA	0.119
CTTTTGGC	0.121
AATGCAAC	0.122
ATACTTAA	0.175
TAATTCGA	0.132
ATTTCAGC	-0.1
CTGACATC	-0.0898
CAGTTTAA	0.00566
ACCTGGGA	-0.0403
CTGCCATC	-0.274
AAGTGGTC	0.2
GAGGTACC	0.432
ACCCGCTA	0.211
ATTCTGTA	-0.0359
AGAAGTAA	0.135
CGACACCC	0.188
CGCATCTA	0.0411
CATGTCCC	0.0076
AAATTATG	0.0908
CCGTTAAG	0.14

Sequence	PBM E-score
TGCAATAA	0.31
GATCAGCC	-0.265
AACGTGAC	-0.0506
CGGATTGA	-0.107
CGGTAGAA	-0.257
ATTGACGG	-0.0196
AGTTTGGG	0.131
AGCGGATC	-0.172
AATGATGC	-0.0857
AGCAAAAC	0.0587
AATCAGTG	0.00466
CAGGTAAA	0.133
CACACCGA	0.0911
GGTTGACA	-0.052
ACATAACT	0.149
CATGCGAG	-0.214
AGAAAATG	0.0201
AAGAAAGG	0.0397
AGCTTCAG	-0.165
GCTGAGCC	-0.23
ACAGGGAT	-0.0641
ATCGAAGC	-0.248
ACCAACCA	0.17
CGTCGTTC	-0.166
CAGGGACC	-0.141

Sequence	PBM E-score
AGCCCCAT	-0.0517
CCATGGGA	0.0786
CCTGGGTA	0.197
CATGAGAA	0.133
CTTCCGTC	-0.0683
CCGGGGCA	-0.255
AAAACCCT	0.362
CCATTCAC	0.0919
CCATCTAG	-0.0205
CGTTTACA	-0.0671
GATACTGA	-0.017
GCTGCTAC	-0.183
GGGCCGAC	-0.0668
CCCATTAC	0.13
ACTCGGCG	-0.258
CTTGCTAA	-0.0487
ACCGTATG	-0.00664
AGTGAAGG	-0.0963
ACCAAGAT	0.126
CCACCAAA	0.133
AATGTGGA	-0.175
CATTCAGG	-0.11
ACAGGCAA	-0.118
GACGGGTA	0.0159
CATAGGGC	-0.0199

Sequence	PBM E-score
ATATGATC	0.128
AGAGCGGC	-0.0814
ATTGCCAA	-0.0916
GTGAAGCA	-0.181
GCCAAAGA	-0.126
CGGTGTGA	0.0819
GAATGCGC	-0.262
ATGACTAA	-0.144
CCTGGGGA	-0.183
ACCGATGC	-0.0856
CAAGAGCG	-0.133
GTAGACAC	-0.0245
TCAAACCA	0.201
CACTCTAC	0.177
ACCAGCAG	-0.089
ACATTCAT	-0.131
AGCCAGGA	-0.272
CGGTGGTC	0.205
ATCGGGCA	-0.199
GGCTCACC	-0.292
TGCAACAA	0.151
GCGGAGCC	-0.0954
GTATTAGA	0.196
ATAAGATG	0.0619
CATATGTC	-0.234

Sequence	PBM E-score
CATGCTAG	-0.191
ATACCACC	0.183
CTCTATCC	-0.129
GGTTCTAC	-0.046
CTTGCTCC	-0.161
GTCGACTA	0.0682
ACTTGGGA	-0.0501
AATTCAAG	1e-05
GCTCAAAA	0.132
CTCATGCA	-0.0931
TTATTAAA	0.297
GGCATGCC	0.0452
ATTTTCTC	0.00271
AGTAGCCA	-0.0878
AAAGACCT	0.136
AGATTCGA	0.0773
GATTGATA	0.144
CTGATAGA	0.00527
CATGCTGC	-0.284
CCCTTATA	0.15
AAGGAAAG	-0.165
AACGGGGC	-0.0823
CTCAAGTC	-0.0858
AACGTCAA	-0.0955
CTTGTGAA	-0.039

Sequence	PBM E-score
AAACGCCA	-0.0933
AATATGGT	0.255
ATAGGACC	0.149
AAGGTGCA	0.0139
CGTAGTCC	-0.256
GATGGGCA	-0.132
CAAGTCAA	0.0562
ACAGTCCA	0.0812
TAATGCTA	0.141
GGTTCCTA	0.132
ACAAGAGG	0.107
CAACCATG	0.0992
AGCTTGAG	-0.205
CCGCGGCA	-0.00024
GTGGCTCA	-0.184
ATCTCCAG	-0.0556
AAAATCTG	0.195
TAGTAGCA	-0.0494
CGCTTCCC	-0.231
ATCTGTGA	-0.0286
CGTATGAG	-0.24
AAAGCACC	0.0837
AGTTCCAG	-0.0153
AGAGTTCG	0.0249
GTGACGTA	-0.104

Sequence	PBM E-score
CGTAAGGA	-0.0863
ATCGATGA	0.055
CCTCTCCC	-0.118
CCAGTCGC	-0.137
ACCTACGA	0.0748
AGTGCCGC	-0.241
CAGGCCTA	-0.0344
CCTCAGAA	-0.0154
CACTGATA	-0.0881
GATGGGAA	-0.0718
AGGTTAAG	0.383
CGCCCCGA	0.0459
GCACAAAC	-0.124
CCTGAAGG	0.25
CCCCAACA	-0.0862
CGGCCTAA	0.0382
CGGTAACG	0.0507
GGCGAGCC	-0.208
AGATGAAA	-0.0457
CTAGCGAA	-0.221
CATCGATC	-0.115
CAGACGCA	-0.0635
ACAAAATA	0.212
CGTGTAGC	-0.153
CCGAACAG	-0.0301

Sequence	PBM E-score
ACTCTAAC	0.0768
GATGAATC	-0.027
AGCCGCCC	-0.119
CTATACTC	-0.287
CTCGCGGC	-0.0998
AATTCTTG	-0.0794
AGTCGCAC	-0.107
AGTGAGTG	-0.161
CGATTCCC	-0.0888
AACGACGC	-0.0288
ATCCCTTC	-0.157
ACTCTCCA	-0.134
CGCCCAAA	0.0103
CAACCCGC	0.251
GCCAGTGA	-0.209
CGCTGAAC	0.0666
ACAATATG	0.102
CCATAAAA	0.12
ACATCACC	-0.0522
AACGCCTG	-0.194
CACTTACG	0.0119
AATATATT	0.269
CTTGAACC	-0.0192
TCACAGAA	-0.00307
GACAGCCA	-0.146

Sequence	PBM E-score
CTTTGTGA	0.0154
CCTTCTCA	-0.053
CGGAAGTC	-0.19
AGCTTTGA	0.102
AAAGAGTA	-0.00021
ACCCGGCC	-0.0273
CCTGAAAG	0.156
AGGCAACG	-0.316
GATTGGTA	-0.0727
GACCCCTC	0.138
GACCACAC	0.0441
GCGCGCGC	0.263
GGCCCTAC	0.0088
CAGCCGGC	0.0305
CAGGGTAC	0.437
AACCCGAT	0.31
GGGAGTGA	-0.156
AGAAGGCT	-0.308
CAGCGCTA	-0.119
TACGGTAA	0.256
CCTGACCC	0.29
CTAACCAA	0.262
CCTCGAAG	0.185
ATAAAGTC	0.0837
AGGTTATA	0.469

Sequence	PBM E-score
GGCTTCAA	-0.058
CCGTAGTA	-0.0622
ATACTGAT	0.121
GCTGAACA	0.149
CCGAACAC	0.15
GTAGTCAA	-0.0319
AAGTATGA	-0.0263
AAGTGTTC	-0.00496
CGGGAACC	-0.00143
ATTGCTAC	-0.0268
AAGAGAAT	-0.0743
GTGTAACA	0.0444
TCGTAAGA	-0.0388
AGTTAAAA	0.247
GCCCCTAC	-0.0823
GGATAGCC	-0.12
ACAAGGTA	0.277
AATAGCGC	-0.0844
AAAGGACC	0.111
